The results in this text go back to the supplement of paper PMC3334620.

Whole data set: some 33,000 sequences, median “E-score (-0.5 to 0.5)” near -0.035, cut for the highest 2% near 0.35. This is one part of the list.

The target in the assay is T1, Pdr3 (UniProt P33200).
T1 sequence: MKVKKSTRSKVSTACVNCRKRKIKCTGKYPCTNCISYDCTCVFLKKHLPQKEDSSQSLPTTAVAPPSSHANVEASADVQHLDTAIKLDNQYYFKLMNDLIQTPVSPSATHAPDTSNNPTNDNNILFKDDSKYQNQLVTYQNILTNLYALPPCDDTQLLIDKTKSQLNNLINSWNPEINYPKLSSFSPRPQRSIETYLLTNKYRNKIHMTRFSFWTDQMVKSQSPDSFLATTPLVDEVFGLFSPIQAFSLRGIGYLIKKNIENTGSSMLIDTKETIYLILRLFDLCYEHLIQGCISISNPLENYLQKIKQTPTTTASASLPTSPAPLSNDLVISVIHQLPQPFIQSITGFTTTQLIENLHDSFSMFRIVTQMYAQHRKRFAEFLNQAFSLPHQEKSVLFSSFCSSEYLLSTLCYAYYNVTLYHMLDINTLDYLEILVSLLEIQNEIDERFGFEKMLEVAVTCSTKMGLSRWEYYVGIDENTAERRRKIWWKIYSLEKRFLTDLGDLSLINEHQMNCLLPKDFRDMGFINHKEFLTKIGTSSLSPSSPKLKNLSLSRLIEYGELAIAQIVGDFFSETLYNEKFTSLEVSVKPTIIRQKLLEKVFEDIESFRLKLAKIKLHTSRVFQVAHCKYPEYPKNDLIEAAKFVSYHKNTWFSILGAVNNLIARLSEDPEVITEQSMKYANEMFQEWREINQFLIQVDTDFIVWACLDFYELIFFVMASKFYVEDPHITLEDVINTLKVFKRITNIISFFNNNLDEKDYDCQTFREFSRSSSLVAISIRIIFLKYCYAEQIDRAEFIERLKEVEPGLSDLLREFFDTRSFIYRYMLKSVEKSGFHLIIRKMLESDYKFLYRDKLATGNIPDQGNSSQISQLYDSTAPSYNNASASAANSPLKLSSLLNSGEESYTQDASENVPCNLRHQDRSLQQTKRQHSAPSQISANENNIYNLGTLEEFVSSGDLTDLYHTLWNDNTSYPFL
In words: PBM E-score (8-mer binding enrichment) (E-score (-0.5 to 0.5)); higher = stronger / more preferred TF binding; most listed sequences are background and not binding sites. The conditions noted are these: protein concentration: 200 nM; construct: GST-full length. A digest of the protocol: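 Each ungapped eight-base word and its reverse complement, pooled, received an E-score from the Universal PBM Analysis Suite. Underlying scans, normalised with masliner, recorded fluorescent anti-GST bound to GST-tagged yeast transcription factors. These were applied at about 100-200 nM to universal all-10-mer Agilent arrays double-stranded by primer extension.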
Regarding GCGTAAAA, the “PBM E-score” value stood at 0.00747.

ATGCGATG: the “PBM E-score” value was -0.078.

Turning to GCTCTCTA, the “PBM E-score” value is -0.321.

Regarding TCACCAAA, the “PBM E-score” value is -0.121.

As to CTTTTAGC, the “PBM E-score” value was -0.245.

Turning to AGATCCGA, the “PBM E-score” value came to 0.169.

With ATTTCCGC, the “PBM E-score” value was determined as 0.413.

For the sequence CGAGAGCA, the “PBM E-score” value was 0.0831.

For the sequence AATTTCCC, the “PBM E-score” value stood at 0.0432.

Take AGACCGGA: the “PBM E-score” value came to 0.254.

ATCCCCTA: the “PBM E-score” value was -0.0419.

As for AACCGGTC, the “PBM E-score” value was 0.176.

As for CTTGAAAA, the “PBM E-score” value was -0.0857.

CAGGCTAA: the “PBM E-score” value is -0.214.

Take CGAAAACA: the “PBM E-score” value came to 0.0267.

GTTACCTA: the “PBM E-score” value was -0.153.

For CGCAAATC, the “PBM E-score” value is 0.0269.

On to AAGCCTGT, for which the “PBM E-score” value was 0.028.

In the case of CGACTGTC, the “PBM E-score” value is -0.226.

CGCCGCAC: the “PBM E-score” value is 0.0924.

Regarding CTGCCACA, the “PBM E-score” value is -0.0927.

On to CGCGCCCG, for which the “PBM E-score” value came to 0.23.

On to ACGCTCAA, for which the “PBM E-score” value is -0.0968.

For the sequence AGCACAAG, the “PBM E-score” value was -0.186.

Turning to AGTAAACT, the “PBM E-score” value turned out to be 0.121.

As for AAATAGGT, the “PBM E-score” value is -0.15.

With GCGGACGA, the “PBM E-score” value worked out at 0.333.

Turning to ACCTGAAG, the “PBM E-score” value is -0.101.

As for AGCGCGTA, the “PBM E-score” value came to 0.00082.

Regarding TGCATACA, the “PBM E-score” value is -0.033.

Take CGGTACTA: the “PBM E-score” value stood at 0.152.

In the case of GTAGTCTA, the “PBM E-score” value was -0.11.

As to CTACTAAG, the “PBM E-score” value was -0.0243.

As for ATCCCGAA, the “PBM E-score” value was 0.308.

On to TAAATTGA, for which the “PBM E-score” value is -0.0504.

Take AATGTTCT: the “PBM E-score” value was -0.287.

With AGAGCATG, the “PBM E-score” value is -0.107.

For AATCGTTG, the “PBM E-score” value is 0.0459.

AGAGGGAA: the “PBM E-score” value is -0.226.

Regarding CCGCAACC, the “PBM E-score” value worked out at 0.232.

With AAGTCATG, the “PBM E-score” value was -0.0527.

Turning to CACTGAGA, the “PBM E-score” value is -0.209.

For the sequence AAATGAGA, the “PBM E-score” value was -0.183.

As to ACACATTC, the “PBM E-score” value is -0.00297.

For CGGCAGAG, the “PBM E-score” value was found to be 0.0006.

Consider CGTGTCAG, for which the “PBM E-score” value amounted to 0.145.

On to AAATTCCT, for which the “PBM E-score” value is 0.0116.

On to ATAGTTCG, for which the “PBM E-score” value stood at 0.193.

Turning to CTGTGAAA, the “PBM E-score” value was 0.0103.

Regarding CAGGCTAG, the “PBM E-score” value was -0.315.

For ACGCACGA, the “PBM E-score” value was -0.15.

On to CATTGTAG, for which the “PBM E-score” value is 0.00167.

For CTTGTTCC, the “PBM E-score” value was found to be 0.207.

For the sequence GAACACTA, the “PBM E-score” value is -0.0215.

ATTGTTTA: the “PBM E-score” value was -0.162.

In the case of AGGTATTG, the “PBM E-score” value was -0.103.

On to ACGACCTC, for which the “PBM E-score” value is 0.183.

Regarding CCTCCAGC, the “PBM E-score” value is -0.261.

With ATATACAT, the “PBM E-score” value was -0.0165.

In the case of GAAACTAC, the “PBM E-score” value was found to be 0.0827.

For the sequence CGCTACGA, the “PBM E-score” value is 0.0564.

As to CGTGCCCC, the “PBM E-score” value is -0.232.

Turning to CACAGGAG, the “PBM E-score” value is -0.091.

For CTCGAACC, the “PBM E-score” value is -0.0403.

Regarding CTGTGTGC, the “PBM E-score” value was -0.141.

Take TAACAGTA: the “PBM E-score” value was -0.171.

For ATAGTAAC, the “PBM E-score” value was -0.101.

As to GGACGCAA, the “PBM E-score” value stood at 0.113.

As to ATGCGTCC, the “PBM E-score” value turned out to be 0.0189.

In the case of ACAGTCAA, the “PBM E-score” value is -0.022.

As for ACGTTACT, the “PBM E-score” value was -0.191.

Consider CATTGTCG, for which the “PBM E-score” value is -0.0495.

Regarding AACACAAA, the “PBM E-score” value was -0.078.

Turning to TCAAAGCA, the “PBM E-score” value is -0.0887.

With GCGAGCTA, the “PBM E-score” value is -0.0689.

As for AGAGTAAA, the “PBM E-score” value is -0.181.

Take GCTTGCTA: the “PBM E-score” value is -0.144.

As for AGTTGAGA, the “PBM E-score” value was -0.166.

For GGCGCCAA, the “PBM E-score” value came out at 0.108.

Take CGTCAGTC: the “PBM E-score” value was 0.0108.

For AAGTTTCA, the “PBM E-score” value stood at 0.0173.

As for CGCACACA, the “PBM E-score” value was -0.0409.

As for GGCGGCCA, the “PBM E-score” value was -0.0702.

As to TATACTAA, the “PBM E-score” value was -0.101.

Regarding ATATTCGG, the “PBM E-score” value worked out at 0.106.

As to ATTTACGC, the “PBM E-score” value was -0.033.
